According to the supplement of paper PMC4604168 (melanoma cell lines):
The other results are listed elsewhere or left out. Repeats are few or missing, and single values can be far off.

Tests used:
Experiment in all cases: cell count relative to DMSO control; melanoma cells; higher = more viable cells
Details in all cases: library dose: low library concentration; 72 h
WM115 = test system: WM115
WM1716 = test system: WM1716
WM1745 = test system: WM1745
WM3526 = test system: WM3526
WM3619 = test system: WM3619
WM451Lu = test system: WM451Lu
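Also: cell number obtained by counting DAPI-stained nuclei in high-throughput microscope images with image analysis software, screen run in 1,536-well plates.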

Cc1cc(N2CCOCC2)cc2[nH]c(-c3c(NC[C@@H](O)c4cccc(Cl)c4)cc[nH]c3=O)nc12 + COc1ccc(COc2ccc(Cc3cnc(N)nc3N)cc2OC)cc1 [GW2580] (first compound 0.2 µM, partner dose 1 µM)
cell count (WM115): 95.7%
cell count (WM1716): 98.4%
cell count (WM1745): 84%
cell count (WM3526): 114%
cell count (WM3619): 99.5%
cell count (WM451Lu): 84.9%

Cn1nnc2c(C(N)=O)ncn2c1=O [temozolomide] + CC(C)CCN1c2nc(Nc3cc(F)c(O)c(F)c3)ncc2N(C)C(=O)C1C [BID1870] (first compound 2 µM, partner dose 0.2 µM)
cell count (WM115): 96.7%
cell count (WM1716): 91.4%
cell count (WM1745): 96.1%
cell count (WM3526): 106%
cell count (WM3619): 82.8%
cell count (WM451Lu): 93.3%

O=C(O)[C@@H]1[O][Sb](=[O])([O][Sb]2(=[O])[O][C@H]([C@H](O)CO)[C@H](O)[C@H](C(=O)O)[O]2)[O][C@H]([C@H](O)CO)[C@@H]1O (stereo not given in full) [stibogluconate] + Cc1nc(Nc2ncc(C(=O)Nc3c(C)cccc3Cl)s2)cc(N2CCN(CCO)CC2)n1 [dasatanib] (first compound 2 µM, partner dose 0.004 µM)
cell count (WM115): 68.6%
cell count (WM1716): 56.9%
cell count (WM1745): 62.7%
cell count (WM3526): 96.3%
cell count (WM3619): 88.9%
cell count (WM451Lu): 93%

O=C(Nc1cc(C(F)(F)F)cc(C(F)(F)F)c1)c1cc(Cl)ccc1O + CS(=O)(=O)c1ccc(C(=O)Nc2ccc(Cl)c(-c3ccccn3)c2)c(Cl)c1 [vismodegib] (first compound 0.016 µM, partner dose 1 µM)
cell count (WM115): 100%
cell count (WM1716): 108%
cell count (WM1745): 115%
cell count (WM3526): 126%
cell count (WM3619): 118%
cell count (WM451Lu): 112%

O=C(Nc1cc(C(F)(F)F)cc(C(F)(F)F)c1)c1cc(Cl)ccc1O + Cc1ccc(NC(=O)c2cccc(N(C)C)c2)cc1NC(=O)c1ccc(O)cc1 [ZM336372] (first compound 0.016 µM, partner dose 2 µM)
cell count (WM115): 107%
cell count (WM1716): 96%
cell count (WM1745): 80.2%
cell count (WM3526): 107%
cell count (WM3619): 90.7%
cell count (WM451Lu): 91.9%

O=C(Nc1ccccc1)c1cc([N+](=O)[O-])ccc1Cl + COc1ccc(-c2ccc3c(N4CCOCC4)nc(N4C[C@@H](C)O[C@@H](C)C4)nc3n2)cc1CO [KU0063794] (first compound 2 µM, partner dose 0.02 µM)
cell count (WM115): 83.7%
cell count (WM1716): 95.7%
cell count (WM1745): 82.8%
cell count (WM3526): 103%
cell count (WM3619): 84.9%
cell count (WM451Lu): 102%

Cn1nnc2c(C(N)=O)ncn2c1=O [temozolomide] + NC(=O)Nc1cc(-c2cccc(F)c2)sc1C(=O)N[C@H]1CCCNC1 [AZD7762] (first compound 2 µM, partner dose 0.02 µM)
cell count (WM115): 85.6%
cell count (WM1716): 92%
cell count (WM1745): 97.3%
cell count (WM3526): 92.2%
cell count (WM3619): 51%
cell count (WM451Lu): 119%

Cc1cc(N2CCOCC2)cc2[nH]c(-c3c(NC[C@@H](O)c4cccc(Cl)c4)cc[nH]c3=O)nc12 + Oc1nc(-c2ccc(C(F)(F)F)cc2)nc2c1CSCC2 [XAV939] (first compound 0.2 µM, partner dose 2 µM)
cell count (WM115): 110%
cell count (WM1716): 77.2%
cell count (WM1745): 61.6%
cell count (WM3526): 90.3%
cell count (WM3619): 86.3%
cell count (WM451Lu): 102%

O=C(Nc1cc(C(F)(F)F)cc(C(F)(F)F)c1)c1cc(Cl)ccc1O + Cc1cc(N2CCOCC2)cc2[nH]c(-c3c(NC[C@@H](O)c4cccc(Cl)c4)cc[nH]c3=O)nc12 [BMS536924] (first compound 0.016 µM, partner dose 0.2 µM)
cell count (WM115): 90.8%
cell count (WM1716): 102%
cell count (WM1745): 74%
cell count (WM3526): 77.9%
cell count (WM3619): 111%
cell count (WM451Lu): 105%

O=C(O)[C@@H]1[O][Sb](=[O])([O][Sb]2(=[O])[O][C@H]([C@H](O)CO)[C@H](O)[C@H](C(=O)O)[O]2)[O][C@H]([C@H](O)CO)[C@@H]1O (stereo not given in full) [stibogluconate] + CC(C)CCN1c2nc(Nc3cc(F)c(O)c(F)c3)ncc2N(C)C(=O)C1C [BID1870] (first compound 2 µM, partner dose 0.2 µM)
cell count (WM115): 98.1%
cell count (WM1716): 111%
cell count (WM1745): 112%
cell count (WM3526): 113%
cell count (WM3619): 105%
cell count (WM451Lu): 92%

Cc1cc(N2CCOCC2)cc2[nH]c(-c3c(NC[C@@H](O)c4cccc(Cl)c4)cc[nH]c3=O)nc12 + COc1cc(N2CCC(N3CCN(C)CC3)CC2)ccc1Nc1ncc(Cl)c(Nc2ccccc2S(=O)(=O)C(C)C)n1 [NVP-TAE684] (first compound 0.2 µM, partner dose 0.08 µM)
cell count (WM115): 98.6%
cell count (WM1716): 97.9%
cell count (WM1745): 68.8%
cell count (WM3526): 84.9%
cell count (WM3619): 99.2%
cell count (WM451Lu): 90.7%

O=C(O)c1ccc2c(c1)nc(Nc1cccc(Cl)c1)c1ccncc12 + CCc1ccc(CCOc2ccc(CC3SC(=O)NC3=O)cc2)nc1 [pioglitazone] (first compound 0.4 µM, partner dose 2 µM)
cell count (WM115): 104%
cell count (WM1716): 87.7%
cell count (WM1745): 98.6%
cell count (WM3526): 84.7%
cell count (WM3619): 98%
cell count (WM451Lu): 92.2%

O=C(O)c1ccc2c(c1)nc(Nc1cccc(Cl)c1)c1ccncc12 + Cn1cncc1[C@@](N)(c1ccc(Cl)cc1)c1ccc2c(c1)c(-c1cccc(Cl)c1)cc(=O)n2C [tipifarnib] (first compound 0.4 µM, partner dose 0.01 µM)
cell count (WM115): 99.7%
cell count (WM1716): 79.5%
cell count (WM1745): 84.6%
cell count (WM3526): 79.1%
cell count (WM3619): 62.1%
cell count (WM451Lu): 77.7%

O=C(Nc1cc(C(F)(F)F)cc(C(F)(F)F)c1)c1cc(Cl)ccc1O + OCc1c[nH]c2ccccc12 [Indole-3-carbinol] (first compound 0.016 µM, partner dose 0.8 µM)
cell count (WM115): 90.5%
cell count (WM1716): 95.6%
cell count (WM1745): 110%
cell count (WM3526): 91.5%
cell count (WM3619): 85.6%
cell count (WM451Lu): 110%

O=C(Nc1cc(C(F)(F)F)cc(C(F)(F)F)c1)c1cc(Cl)ccc1O + Nc1nc(F)nc2c1ncn2[C@@H]1O[C@H](CO)[C@@H](O)[C@@H]1O [fludarabine] (first compound 0.016 µM, partner dose 0.2 µM)
cell count (WM115): 85%
cell count (WM1716): 139%
cell count (WM1745): 125%
cell count (WM3526): 30.8%
cell count (WM3619): 86.8%
cell count (WM451Lu): 56%

O=C(Nc1cc(C(F)(F)F)cc(C(F)(F)F)c1)c1cc(Cl)ccc1O + CCCS(=O)(=O)Nc1ccc(F)c(C(=O)c2c[nH]c3ncc(Cl)cc23)c1F [PLX4720] (first compound 0.016 µM, partner dose 0.08 µM)
cell count (WM115): 102%
cell count (WM1716): 123%
cell count (WM1745): 105%
cell count (WM3526): 84%
cell count (WM3619): 98.7%
cell count (WM451Lu): 104%

Cn1nnc2c(C(N)=O)ncn2c1=O [temozolomide] + COc1ccc(-c2ccc3c(N4CCOCC4)nc(N4C[C@@H](C)O[C@@H](C)C4)nc3n2)cc1CO [KU0063794] (first compound 2 µM, partner dose 0.02 µM)
cell count (WM115): 92.4%
cell count (WM1716): 78.6%
cell count (WM1745): 88.3%
cell count (WM3526): 100%
cell count (WM3619): 100%
cell count (WM451Lu): 93.7%

O=C(O)[C@@H]1[O][Sb](=[O])([O][Sb]2(=[O])[O][C@H]([C@H](O)CO)[C@H](O)[C@H](C(=O)O)[O]2)[O][C@H]([C@H](O)CO)[C@@H]1O (stereo not given in full) [stibogluconate] + COc1ccc2c(c1)CCC1C2CCC2(C)C(NCCCCCCN3C(=O)C=CC3=O)CCC12 [U73122] (first compound 2 µM, partner dose 0.4 µM)
cell count (WM115): 95.7%
cell count (WM1716): 93.5%
cell count (WM1745): 92.1%
cell count (WM3526): 105%
cell count (WM3619): 108%
cell count (WM451Lu): 108%

O=C(Nc1cc(C(F)(F)F)cc(C(F)(F)F)c1)c1cc(Cl)ccc1O + CCCCCCCCCCCCCCCCCCOP(=O)([O-])OC1CC[N+](C)(C)CC1 [Perifosine] (first compound 0.016 µM, partner dose 0.4 µM)
cell count (WM115): 95.1%
cell count (WM1716): 93.1%
cell count (WM1745): 100%
cell count (WM3526): 91.7%
cell count (WM3619): 88.9%
cell count (WM451Lu): 117%

O=C(O)c1ccc2c(c1)nc(Nc1cccc(Cl)c1)c1ccncc12 + COc1ccc2c(c1)CCC1C2CCC2(C)C(NCCCCCCN3C(=O)C=CC3=O)CCC12 [U73122] (first compound 0.4 µM, partner dose 0.4 µM)
cell count (WM115): 99.2%
cell count (WM1716): 85.1%
cell count (WM1745): 88.2%
cell count (WM3526): 85.5%
cell count (WM3619): 106%
cell count (WM451Lu): 102%

O=C(Nc1cc(C(F)(F)F)cc(C(F)(F)F)c1)c1cc(Cl)ccc1O + CC1(C)CCC(c2ccc(Cl)cc2)=C(CN2CCN(c3ccc(C(=O)NS(=O)(=O)c4ccc(N[C@H](CCN5CCOCC5)CSc5ccccc5)c(S(=O)(=O)C(F)(F)F)c4)cc3)CC2)C1 [ABT263] (first compound 0.016 µM, partner dose 0.4 µM)
cell count (WM115): 93.3%
cell count (WM1716): 87.6%
cell count (WM1745): 38%
cell count (WM3526): 85.7%
cell count (WM3619): 70.4%
cell count (WM451Lu): 83.8%

Cn1nnc2c(C(N)=O)ncn2c1=O [temozolomide] + Cc1cc([N+](=O)[O-])ccc1NS(=O)(=O)c1cc(Cl)ccc1Cl [FH535] (first compound 2 µM, partner dose 1 µM)
cell count (WM115): 86.9%
cell count (WM1716): 96%
cell count (WM1745): 87.7%
cell count (WM3526): 73.5%
cell count (WM3619): 115%
cell count (WM451Lu): 95.8%

O=C(Nc1ccccc1)c1cc([N+](=O)[O-])ccc1Cl + COc1ccc(COc2ccc(Cc3cnc(N)nc3N)cc2OC)cc1 [GW2580] (first compound 2 µM, partner dose 1 µM)
cell count (WM115): 96%
cell count (WM1716): 108%
cell count (WM1745): 100%
cell count (WM3526): 103%
cell count (WM3619): 132%
cell count (WM451Lu): 107%

O=C(Nc1cc(C(F)(F)F)cc(C(F)(F)F)c1)c1cc(Cl)ccc1O + CN(C)S(=O)(=O)c1ccc2c(c1)/C(=C/c1cc3c([nH]1)CCCC3)C(=O)N2 [SU6656] (first compound 0.016 µM, partner dose 0.4 µM)
cell count (WM115): 70.7%
cell count (WM1716): 111%
cell count (WM1745): 94.2%
cell count (WM3526): 69.3%
cell count (WM3619): 118%
cell count (WM451Lu): 76.3%

O=C(Nc1cc(C(F)(F)F)cc(C(F)(F)F)c1)c1cc(Cl)ccc1O + Cn1cnc2c(F)c(Nc3ccc(Br)cc3Cl)c(C(=O)NOCCO)cc21 [selumetinib] (first compound 0.016 µM, partner dose 0.015 µM)
cell count (WM115): 94.5%
cell count (WM1716): 122%
cell count (WM1745): 111%
cell count (WM3526): 89.7%
cell count (WM3619): 111%
cell count (WM451Lu): 97.6%
